Results published in publication PMC4336329 (PLoS ONE, 2015).
Hit rate of the full screen: of about 310,000 compounds, about 14,000 (4.5%) showed an effect of 50% or more. Effects have a minus sign here. The list shows a part of the results.

biological target: human ether-à-go-go-related gene (hERG) potassium channel (human, UniProt Q12809); test: primary screen, population patch clamp on CHO cells stably expressing hERG
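Note: peak tail current of the secondary pulse compared with the same well before compound.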

Sequence of human ether-à-go-go-related gene (hERG) potassium channel (Q12809 whole entry, looked up): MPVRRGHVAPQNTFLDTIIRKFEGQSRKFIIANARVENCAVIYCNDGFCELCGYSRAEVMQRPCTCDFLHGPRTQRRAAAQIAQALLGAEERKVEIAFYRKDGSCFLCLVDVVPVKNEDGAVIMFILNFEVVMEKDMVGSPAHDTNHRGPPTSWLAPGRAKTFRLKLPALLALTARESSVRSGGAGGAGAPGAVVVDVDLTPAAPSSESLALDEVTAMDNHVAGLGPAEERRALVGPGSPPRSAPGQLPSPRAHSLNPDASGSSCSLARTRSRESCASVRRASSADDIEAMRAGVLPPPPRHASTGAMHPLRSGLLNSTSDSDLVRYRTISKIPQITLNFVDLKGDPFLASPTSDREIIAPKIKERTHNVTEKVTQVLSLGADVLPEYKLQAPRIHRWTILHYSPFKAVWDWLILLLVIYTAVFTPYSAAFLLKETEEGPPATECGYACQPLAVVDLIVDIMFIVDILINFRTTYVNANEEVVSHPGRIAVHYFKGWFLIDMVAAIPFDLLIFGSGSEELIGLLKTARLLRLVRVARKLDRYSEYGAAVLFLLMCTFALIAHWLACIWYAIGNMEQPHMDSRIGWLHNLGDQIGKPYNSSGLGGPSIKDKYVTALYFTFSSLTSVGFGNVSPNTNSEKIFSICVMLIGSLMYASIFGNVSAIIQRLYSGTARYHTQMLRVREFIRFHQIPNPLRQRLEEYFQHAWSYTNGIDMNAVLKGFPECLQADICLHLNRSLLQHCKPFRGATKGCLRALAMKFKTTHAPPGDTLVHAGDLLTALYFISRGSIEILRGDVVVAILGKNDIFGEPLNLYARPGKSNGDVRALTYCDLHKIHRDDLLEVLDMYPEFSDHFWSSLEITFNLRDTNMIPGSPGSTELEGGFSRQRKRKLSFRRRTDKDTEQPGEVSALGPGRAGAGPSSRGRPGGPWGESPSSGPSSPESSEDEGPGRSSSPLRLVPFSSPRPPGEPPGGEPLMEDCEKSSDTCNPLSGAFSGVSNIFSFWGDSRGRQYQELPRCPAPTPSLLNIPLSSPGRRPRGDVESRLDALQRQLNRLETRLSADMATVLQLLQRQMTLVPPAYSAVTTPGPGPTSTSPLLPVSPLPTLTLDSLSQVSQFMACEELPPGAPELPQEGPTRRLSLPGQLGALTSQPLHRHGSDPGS

Going from COc1ccc(-c2cn(CCO)c(-c3ccc(Cl)nc3)n2)cc1 to CCOc1ccc(N(Cc2cc3cc(OC)ccc3[nH]c2=O)S(C)(=O)=O)cc1, the “hERG current change (%, negative = inhibition) at 10uM” value rises from -9.71% to 0.193%.

First: CCOc1cc(C)nc(Oc2ccc(=O)[nH]n2)n1
Second: CCOC(=O)CSc1nc(N)cc(=O)[nH]1
The “hERG current change (%, negative = inhibition) at 10uM” value of the first is lower: 1.87% for the first, 7.78% for the second.

First: O=c1cc(-c2ccccc2Cl)c2c([nH]1)CCC2
Second: O=c1cnnc(Nc2ccccc2F)[nH]1
The “hERG current change (%, negative = inhibition) at 10uM” value of the first is higher: 15.2% for the first, 14.1% for the second.

Going from COc1cc2c(cc1NC(=O)c1ccc(C)c([N+](=O)[O-])c1)oc1ccccc12 to COc1ccc(/C=C2\Sc3ccc(C(=O)NC4CC4)cc3N(C)C2=O)cc1OC, the “hERG current change (%, negative = inhibition) at 10uM” value falls from 12.1% to -34.6%.

Compared with CC1CCCC(NC(=O)COC(=O)c2cn(C)c3ccccc23)C1C (stereo not drawn), COC(=O)c1cc2sccc2n1CC(=O)N1CCCc2ccccc21 is lower in “hERG current change (%, negative = inhibition) at 10uM” value: 7.7% for the first, -5.33% for the second.

Compared with Cc1cc(Br)ccc1NC(=O)CN(C)C(=O)CCSc1ccc(F)cc1, CCOC(=O)c1c(C)[nH]c(C)c1S(=O)(=O)N(C)CC(=O)Nc1cccc(F)c1 is higher in “hERG current change (%, negative = inhibition) at 10uM” value: 0.468% for the first, 8.39% for the second.

Compared with COc1cc(OC)cc(C(=O)N2CCN(Cc3cccc(F)c3)CC2)c1.O=C(O)C(=O)O, O=C(Nc1cccc(F)c1)c1cc(S(=O)(=O)N2CCC(C(=O)O)CC2)ccc1F is higher in “hERG current change (%, negative = inhibition) at 10uM” value: -31.4% for the first, -1.84% for the second.

Compared with Cc1cccc2sc(NNC(=O)c3cc(-c4cccs4)nc4ccccc34)nc12, Cc1ccccc1C(=O)NC1CCN(C(=O)NCc2ccccc2)CC1 is lower in “hERG current change (%, negative = inhibition) at 10uM” value: 13.4% for the first, 2.6% for the second.

Going from CCCCOc1ccc(CSCCNC(=S)Nc2ccccc2)cc1 to CC(C)c1ccc(NC(=O)COC(=O)COc2ccccc2)cc1, the “hERG current change (%, negative = inhibition) at 10uM” value falls from 19.8% to -6.4%.

First: CCOc1cc(/C=C(\C(=O)O)c2ccc(S(=O)(=O)N3CCCC3)s2)ccc1OC
Second: COc1ccc(S(=O)(=O)N(C)CC(=O)N2CCC(C(N)=O)CC2)cc1Cl
The “hERG current change (%, negative = inhibition) at 10uM” value of the first is higher: 3.4% for the first, -0.778% for the second.

Going from CC(C)(C)NC(=O)c1cccnc1Sc1ccccc1 to O=C(CSc1ccccc1)NCc1ccco1, the “hERG current change (%, negative = inhibition) at 10uM” value falls from 18.7% to 7.06%.

First: O=C(CN1CCCCC1)N/N=C/c1ccccc1Br
Second: CC(O)(C#CCN1CCCCC1)c1ccccc1 (stereo not drawn)
The “hERG current change (%, negative = inhibition) at 10uM” value of the first is lower: -4.47% for the first, 1.9% for the second.

Going from CCOc1ncccc1C(=O)Nc1cccc(Cl)c1Cl to O=C(COc1cccnc1[N+](=O)[O-])N1CCc2ccccc2C1, the “hERG current change (%, negative = inhibition) at 10uM” value falls from 15.8% to 4.11%.

Going from COCCNS(=O)(=O)c1cc(-c2nn(C)c(=O)c3ccccc23)ccc1C to Cc1c(C(=O)NCc2ccc(S(N)(=O)=O)cc2)oc2ccc(Cl)cc12, the “hERG current change (%, negative = inhibition) at 10uM” value rises from -28.9% to 10%.

Compared with NC(=O)[C@H](Cc1cc2ccccc2s1)NC(=O)[C@@H]1CC2(CC(c3cccc(NC(=O)[C@@H]4CCC(=O)N4)c3)=NO2)CN1C(=O)c1ccccc1 (stereo partly drawn), CCCCCC(=O)Nc1cccc(C2=NOC3(C2)C[C@@H](C(N)=O)N(C(=O)c2ccc(Cl)cc2)C3)c1 (stereo partly drawn) is lower in “hERG current change (%, negative = inhibition) at 10uM” value: -9% for the first, -29.6% for the second.

Compared with CC1CCC/C(=N/NC(=O)c2ccccc2-n2cccc2)C1 (stereo not drawn), COc1cccc(CC(=O)NC2CCSc3ccccc32)c1 (stereo not drawn) is higher in “hERG current change (%, negative = inhibition) at 10uM” value: 5.95% for the first, 8.06% for the second.

Going from Cc1nnc(NC(=O)CCCCCN2C(=O)C3C4C=CC(C4)C3C2=O)s1 (stereo not drawn) to O=C(O)CCCCCNC(=O)Nc1ccc2c(c1)OCCO2, the “hERG current change (%, negative = inhibition) at 10uM” value rises from -9.98% to 14.1%.

Compared with Cc1ccc(NC(=O)N[C@H](C(=O)O)C(C)C)c(C)c1, CC(=O)NC(NC(=S)Nc1ccc(C)cc1C)C(Cl)(Cl)Cl (stereo not drawn) is lower in “hERG current change (%, negative = inhibition) at 10uM” value: 14.9% for the first, 6.31% for the second.

First: CCn1nnc(NC(=O)c2ccc(C(C)(C)C)cc2)n1
Second: CCN(CC)C(=O)N1CCC(NC(=O)c2ccc(C(C)(C)C)cc2)CC1
The “hERG current change (%, negative = inhibition) at 10uM” value of the first is higher: 0.506% for the first, -5.14% for the second.

First: Cc1nnc(SCC(=O)NC2CCCCCC2)n1N
Second: O=C(CN1C(=O)c2ccc([N+](=O)[O-])cc2C1=O)NC1CCCCCC1
The “hERG current change (%, negative = inhibition) at 10uM” value of the first is higher: 4.34% for the first, 1.09% for the second.

Compared with COc1cc(CNCCCN2CCOCC2)c(Br)cc1OC(C)C.Cl, CCc1nn(CC(=O)NCCCN2CCN(C)CC2)c(=O)c2cc3sc(C)cc3n12 is higher in “hERG current change (%, negative = inhibition) at 10uM” value: 5.58% for the first, 14.8% for the second.

First: COc1cccc(-n2c(SCC(=O)N3c4ccccc4CC3C)nnc2-c2ccco2)c1 (stereo not drawn)
Second: Cc1ccc(C(=O)N/C(=C\c2cccc([N+](=O)[O-])c2)C(=O)OCN2C(=O)c3ccccc3C2=O)cc1
The “hERG current change (%, negative = inhibition) at 10uM” value of the first is lower: -27% for the first, -11% for the second.

Going from O=C1C2CCCN2C(c2cccc(F)c2)N1c1cccc(Cl)c1 (stereo not drawn) to COc1ccc(N2Cc3ccccc3C2)cc1Cl, the “hERG current change (%, negative = inhibition) at 10uM” value falls from -11.4% to -59.9%.

First: CC1CCc2c(sc(NC(=O)CCc3nc4ccccc4c(=O)[nH]3)c2C#N)C1 (stereo not drawn)
Second: Cc1cccc(Nc2sc(C(=O)c3cc4cc(Cl)ccc4o3)c(N)c2C#N)c1
The “hERG current change (%, negative = inhibition) at 10uM” value of the first is higher: 0.559% for the first, -2.78% for the second.

Going from COc1ccc(/C(N)=N/O)c(OC)c1 to COc1ccc2c(c1)CC/C(=C\c1ccc(OC)c(Cn3nc(C)cc3C)c1)C2=O, the “hERG current change (%, negative = inhibition) at 10uM” value falls from 17% to -6.86%.

First: CCc1cc2c(cc3c(=O)n(CC(=O)N4CCN(c5ccccn5)CC4)nc(CC)n32)s1
Second: O=C(CSc1ccccn1)N1CCN(c2ccc(Cl)cc2)CC1
The “hERG current change (%, negative = inhibition) at 10uM” value of the first is higher: 0.361% for the first, -5.36% for the second.

Going from CCNC(=S)N1CCN(CCNC2=CC(=O)CC(C)(C)C2)CC1 to CCN(CC)C(=O)C1CCCN(Cc2ccc(N(C)C)cc2)C1 (stereo not drawn), the “hERG current change (%, negative = inhibition) at 10uM” value falls from -12.2% to -12.5%.

Going from O=C(Nc1ccc(S(=O)(=O)N2CCOCC2)cc1)c1ccc(S(=O)(=O)N2CCOCC2)cc1 to O=C(Nc1ccc2c(c1)OCO2)c1cccc(S(=O)(=O)N2CCOCC2)c1, the “hERG current change (%, negative = inhibition) at 10uM” value falls from 10.7% to -8.39%.

First: Cc1cc(C(=O)COC(=O)c2ccc(O)cc2)c(C)n1CC1CCCO1 (stereo not drawn)
Second: CCOC(=O)c1ccc(-n2ncc(C(=O)OCC)c2N)cc1
The “hERG current change (%, negative = inhibition) at 10uM” value of the first is higher: 12.3% for the first, 1.11% for the second.

Compared with Br.Clc1ccc2nc(CN3CCCCC3)cn2c1, CCc1cccc(Nc2c3c(nc4ncnn24)CCC3)c1 is higher in “hERG current change (%, negative = inhibition) at 10uM” value: -32.7% for the first, -0.116% for the second.

Going from CC(C)CCn1nnnc1C(c1ccccc1)N1CCC(C(N)=O)CC1 (stereo not drawn) to O=C(NCc1ccncc1)C1CCN(S(=O)(=O)Cc2ccccc2)CC1, the “hERG current change (%, negative = inhibition) at 10uM” value falls from -2% to -10.4%.

Going from Nc1ccc(Nc2nc3ccccc3[nH]2)cc1 to CCS(=O)(=O)N1Cc2ccccc2CC1C(=O)Nc1ccc(F)cc1 (stereo not drawn), the “hERG current change (%, negative = inhibition) at 10uM” value falls from 19.2% to -4.02%.

Compared with N#CCc1c(C#N)c(N)nc(N2CCOCC2)c1C#N, Cc1cc(C)n(-c2ccc(F)cc2)c(=O)c1C#N is higher in “hERG current change (%, negative = inhibition) at 10uM” value: 1.34% for the first, 28.4% for the second.

First: CC(C)N1CCC(N2CCN(C3CCCCC3)CC2CCO)CC1 (stereo not drawn)
Second: O=C(Cc1cccs1)N(CC1CCCO1)C1(C(=O)NC2CCCC2)CCCCC1 (stereo not drawn)
The “hERG current change (%, negative = inhibition) at 10uM” value of the first is higher: 18.9% for the first, -17.8% for the second.

Compared with O=C(CSc1nnc(-c2ccncc2)s1)Nc1ccccc1, c1ccc(-c2nnc(-c3ccncc3)o2)cc1 is lower in “hERG current change (%, negative = inhibition) at 10uM” value: 3.19% for the first, -6.95% for the second.

Going from CSc1cccc(NC(=O)Cn2cccc2)c1 to CCC(=O)Nc1cccc(C(=O)N(Cc2ccccc2)Cc2ccccc2)c1, the “hERG current change (%, negative = inhibition) at 10uM” value falls from -4.81% to -5.82%.

Going from CCC(C)(C)NC(=O)CN(C(=O)CCC(=O)Nc1nccs1)c1ccc2c(c1)OCCO2 to CCOC(=O)CSc1nc2ccccc2n1CC(=O)N(C(C)C)C(C)C, the “hERG current change (%, negative = inhibition) at 10uM” value falls from 4.58% to -2.13%.

Compared with Cc1c(NC=C(C#N)C#N)c(=O)n(-c2ccccc2)n1C, CN1c2ccccc2N(C)C1(C)c1ccccc1 is lower in “hERG current change (%, negative = inhibition) at 10uM” value: 35.5% for the first, 5.91% for the second.

Going from CN(C(=O)c1ccco1)c1ccccc1C(=O)O to CN1C(=O)C(O)(CC(=O)/C=C/C=C/c2ccccc2)c2ccccc21 (stereo not drawn), the “hERG current change (%, negative = inhibition) at 10uM” value falls from 17.8% to -0.539%.

First: Fc1ccc(C2C3=C(Nc4ncnn42)c2ccccc2OC3c2ccncc2)cc1 (stereo not drawn)
Second: NS(=O)(=O)c1ccc(CCN=Cc2ccccc2O)cc1
The “hERG current change (%, negative = inhibition) at 10uM” value of the first is lower: -60.4% for the first, 3.18% for the second.

Compared with Cc1cc2oc(=O)cc(CSc3nnc(-c4cccs4)o3)c2cc1C(C)C, CC(C(=O)Nc1ccc(O)cc1C(=O)O)N1C(=O)/C(=C\c2cccs2)SC1=S (stereo not drawn) is higher in “hERG current change (%, negative = inhibition) at 10uM” value: 9.78% for the first, 19.1% for the second.

Going from Cc1cccnc1NC(=O)C1CCCN(S(=O)(=O)c2ccc3c(c2)oc(=O)n3C)C1 (stereo not drawn) to Cc1ccc(S(=O)(=O)Nc2cc3c4c(c2)CCC(=O)N4CCC3)cc1, the “hERG current change (%, negative = inhibition) at 10uM” value falls from 5.8% to -24.9%.

First: COc1ccc(S(=O)(=O)Nc2nnc(C(C)C)s2)cc1
Second: COc1ccc(S(=O)(=O)Nc2ccc(S(=O)(=O)Nc3nc(C)cc(C)n3)cc2)cc1OC
The “hERG current change (%, negative = inhibition) at 10uM” value of the first is lower: -9.22% for the first, 7.44% for the second.

Going from COC1OC(CO)C(O)C(O)C1O (stereo not drawn) to COC(=O)CC1SC(=O)NC1=Nc1ccc(O)cc1 (stereo not drawn), the “hERG current change (%, negative = inhibition) at 10uM” value rises from -1.61% to 9.16%.

First: CCOC(=O)C1(Cc2ccc(OC)cc2)CCN(C(=O)C2=CCCC2)CC1
Second: CC1=NNC(=O)C1CCC(=O)N/N=C/C(Br)=C/c1ccccc1 (stereo not drawn)
The “hERG current change (%, negative = inhibition) at 10uM” value of the first is lower: -33.8% for the first, 1.72% for the second.
